B1: CGCCGCU (DNA:RNA)
RNA: GGGAGACCGGAAUUCAGAUUGUCCCGCCGCUUUAAAUCCCGUCGUAGCCACCA
DNA 1: CAATCTGAATTCCGGTCTCCC
DNA 2: TGGTGGCTACGACGGGATT
B2: CUGAGAA (DNA:RNA)
RNA: B1 RNA with G26U, C27G, C28A, C30A, U31A
DNA 1: CAATCTGAATTCCGGTCTCCC
DNA 2: TGGTGGCTACGACGGGATT
B3: UGAGCAC (DNA:RNA)
RNA: B1 RNA with C25U, C27A, C28G, G29C, C30A, U31C
DNA 1: CAATCTGAATTCCGGTCTCCC
DNA 2: TGGTGGCTACGACGGGATT
B4: AACGUCC (DNA:RNA)
RNA: B1 RNA with C25A, G26A, C28G, G29U, U31C
DNA 1: CAATCTGAATTCCGGTCTCCC
DNA 2: TGGTGGCTACGACGGGATT
B5: CUGACUU (DNA:RNA)
RNA: B1 RNA with G26U, C27G, C28A, G29C, C30U
DNA 1: CAATCTGAATTCCGGTCTCCC
DNA 2: TGGTGGCTACGACGGGATT
B6: ACGGGCG (DNA:RNA)
RNA: B1 RNA with C25A, G26C, C27G, C28G, U31G
DNA 1: CAATCTGAATTCCGGTCTCCC
DNA 2: TGGTGGCTACGACGGGATT
B7: AGUAAGC (DNA:RNA)
RNA: B1 RNA with C25A, C27U, C28A, G29A, C30G, U31C
DNA 1: CAATCTGAATTCCGGTCTCCC
DNA 2: TGGTGGCTACGACGGGATT
B8: UGUCGGG (DNA:RNA)
RNA: B1 RNA with C25U, C27U, C30G, U31G
DNA 1: CAATCTGAATTCCGGTCTCCC
DNA 2: TGGTGGCTACGACGGGATT
B9: AAAAGUG (DNA:RNA)
RNA: B1 RNA with C25A, G26A, C27A, C28A, C30U, U31G
DNA 1: CAATCTGAATTCCGGTCTCCC
DNA 2: TGGTGGCTACGACGGGATT
B10: AUCAAGA (DNA:RNA)
RNA: B1 RNA with C25A, G26U, C28A, G29A, C30G, U31A
DNA 1: CAATCTGAATTCCGGTCTCCC
DNA 2: TGGTGGCTACGACGGGATT
B11: GCAUCUC (DNA:RNA)
RNA: GGGAGACCGGAAUUCAGAUUGUCCGCAUCUCUUAAAUCCCGUCGUAGCCACCA
DNA 1: CAATCTGAATTCCGGTCTCCC
DNA 2: TGGTGGCTACGACGGGATT
B12: GUCUGGU (DNA:RNA)
RNA: B1 RNA with C25G, G26U, C28U, C30G
DNA 1: CAATCTGAATTCCGGTCTCCC
DNA 2: TGGTGGCTACGACGGGATT
B13: ACCGCAG (DNA:RNA)
RNA: B11 RNA with G25A, A27C, U28G, U30A, C31G
DNA 1: CAATCTGAATTCCGGTCTCCC
DNA 2: TGGTGGCTACGACGGGATT
B14: UGUUGGU (DNA:RNA)
RNA: B1 RNA with C25U, C27U, C28U, C30G
DNA 1: CAATCTGAATTCCGGTCTCCC
DNA 2: TGGTGGCTACGACGGGATT
B15: GUGUCCC (DNA:RNA)
RNA: B11 RNA with C26U, A27G, U30C
DNA 1: CAATCTGAATTCCGGTCTCCC
DNA 2: TGGTGGCTACGACGGGATT
B16: UCGCAAC (DNA:RNA)
RNA: B11 RNA with G25U, A27G, U28C, C29A, U30A
DNA 1: CAATCTGAATTCCGGTCTCCC
DNA 2: TGGTGGCTACGACGGGATT
B17: CCGUCGU (DNA:RNA)
RNA: B11 RNA with G25C, A27G, U30G, C31U
DNA 1: CAATCTGAATTCCGGTCTCCC
DNA 2: TGGTGGCTACGACGGGATT
B18: UUCGUUG (DNA:RNA)
RNA: B1 RNA with C25U, G26U, C28G, G29U, C30U, U31G
DNA 1: CAATCTGAATTCCGGTCTCCC
DNA 2: TGGTGGCTACGACGGGATT
B19: UGCUGAC (DNA:RNA)
RNA: B1 RNA with C25U, C28U, C30A, U31C
DNA 1: CAATCTGAATTCCGGTCTCCC
DNA 2: TGGTGGCTACGACGGGATT
B20: ACCGAUU (DNA:RNA)
RNA: B1 RNA with C25A, G26C, C28G, G29A, C30U
DNA 1: CAATCTGAATTCCGGTCTCCC
DNA 2: TGGTGGCTACGACGGGATT

Where a chain is given by its changes, count along the chain named. Some of the results follow.

This assay concerns the target T1, RBFOX1 RRM RbFoxmut (Fox-RRM*) (Homo sapiens, UniProt Q9NWB1 109-208, R118D;E147R;N151S;E152T).
T1 sequence: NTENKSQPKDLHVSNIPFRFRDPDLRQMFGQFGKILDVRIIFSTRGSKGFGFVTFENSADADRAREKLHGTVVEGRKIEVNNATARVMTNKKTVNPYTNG
The assay can be described thus: EMSA; HiTS-Eq, 1 nM pool, 10 min; buffer printed only for the single-RNA assays: 10 mM Tris pH 7.5, 150 mM NaCl, 3.4 mM EDTA, 0.001% NP-40, 30 C. Particulars: tags: His6 N-terminal (pET28a); label: 5' 32P. The method, boiled down:
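A pool of RNA with 7 randomized nucleotides, 5′-radiolabelled and with DNA-annealed flanks, was equilibrated at 1 nM for 10 min in 50 µL with purified RbFox RRM, wild type or mutant, across increasing protein concentrations. Free RNA was separated by 8% native PAGE, excised, reverse-transcribed, barcoded by PCR and sequenced. Relative association constants were obtained from read-count changes of each RNA species versus the control reaction and normalised to the cognate motif.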
As to B1, the binding signal was 0.102 KA relative to UGCAUGU.

As for B2, the binding signal is 0.0798 KA relative to UGCAUGU.

Turning to B3, the binding signal is 0.093 KA relative to UGCAUGU.

For the molecule B4, the binding signal is 0.0667 KA relative to UGCAUGU.

As to B5, the binding signal was 0.0682 KA relative to UGCAUGU.

As to B6, the binding signal was 0.114 KA relative to UGCAUGU.

Regarding B7, the binding signal is 0.0885 KA relative to UGCAUGU.

For B8, the binding signal was 0.077 KA relative to UGCAUGU.

Consider B9, for which the binding signal is 0.126 KA relative to UGCAUGU.

Take B10: the binding signal was 0.0663 KA relative to UGCAUGU.

In the case of B11, the binding signal was 0.135 KA relative to UGCAUGU.

As for B12, the binding signal is 0.192 KA relative to UGCAUGU.

Consider B13, for which the binding signal was 0.0948 KA relative to UGCAUGU.

As to B14, the binding signal is 0.148 KA relative to UGCAUGU.

For the molecule B15, the binding signal was 0.101 KA relative to UGCAUGU.

Turning to B16, the binding signal is 0.0571 KA relative to UGCAUGU.

On to B17, for which the binding signal is 0.107 KA relative to UGCAUGU.

For the molecule B18, the binding signal was 0.146 KA relative to UGCAUGU.

Consider B19, for which the binding signal is 0.146 KA relative to UGCAUGU.

In the case of B20, the binding signal was 0.0545 KA relative to UGCAUGU.

For the origin of these results see article PMC9911399, “Two distinct binding modes provide the RNA-binding protein RbFox with extraordinary sequence specificity”.
